# Data reported in PubChem BioAssay AID624417 (National Center for Advancing Translational Sciences (NCATS), 2012).
# About 6,400 (1.6%) of roughly 410,000 compounds were called active. The shares of active, inactive and inconclusive entries below differ from those in the screen. Calls come from the whole dose curve; as a rule, active = well fitted inhibition curve with a large enough effect; inconclusive = small, poorly fitted or top-dose-only effect; inactive = no such curve, though single readings can be large or run the other way. Potencies of inconclusive entries are left out as doubtful fits.
# Target: Glucagon-like peptide 1 receptor (Homo sapiens) (UniProt P43220)
# Assay: qHTS of GLP-1 Receptor Inverse Agonists (Inhibition Mode); note: nearly all actives have a fitted effect of over 55% in size
# Settings: HEK293 GLP-1R CRE-luciferase, luminescence, 24 h, GLP-1R form is constitutively active; series mostly up to 38.3 µM
# Procedure, shortened: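 Readout was luciferase luminescence, measured 12 min after detection reagent at room temperature. Beforehand, GLP-1R reporter HEK293 cells had sat 12 h, then received compounds for 24 hr at 37 deg C.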
# Potency is the fitted concentration of half-maximal effect; tags give direction and shape of the fitted curve.
# Sequence of UniProt P43220 (P43220 whole entry, looked up): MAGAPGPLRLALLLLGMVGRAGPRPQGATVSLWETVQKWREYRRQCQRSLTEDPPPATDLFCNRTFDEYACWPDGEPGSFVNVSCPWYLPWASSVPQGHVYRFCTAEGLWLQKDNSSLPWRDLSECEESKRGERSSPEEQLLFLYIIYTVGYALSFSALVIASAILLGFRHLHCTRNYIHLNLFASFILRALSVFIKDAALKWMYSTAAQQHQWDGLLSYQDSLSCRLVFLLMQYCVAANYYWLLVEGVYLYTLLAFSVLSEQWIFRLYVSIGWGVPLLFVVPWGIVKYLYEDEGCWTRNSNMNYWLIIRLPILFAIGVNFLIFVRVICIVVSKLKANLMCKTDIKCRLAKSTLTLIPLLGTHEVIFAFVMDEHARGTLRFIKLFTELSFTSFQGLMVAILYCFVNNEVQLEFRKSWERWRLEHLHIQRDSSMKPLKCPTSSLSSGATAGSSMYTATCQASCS
row,SMILES,Potency
1,Cc1ccc(Cn2c(C)c3cnn(CC(=O)NCc4ccccc4)c(=O)c3c2C)cc1,"inconclusive [inhibitor, partial curve, poor fit]"
2,CCN(CC)c1ccc(NC(=O)c2cnn(-c3ccccc3)c2-n2cccc2)c(C)c1,"inconclusive [inhibitor, full curve]"
3,COc1ccc(-c2cn[nH]c2-c2ccc(O)cc2O)cc1,"inconclusive [inhibitor, partial curve]"
4,O=C(CCS(=O)(=O)c1ccc(Cl)cc1)NCCN1C(=O)S/C(=C\c2ccccc2F)C1=O,"inconclusive [inhibitor, partial curve]"
5,CC(C)N(C(=O)COC(=O)[C@@H]1CC(O)CN1S(=O)(=O)c1ccc(C(C)(C)C)cc1)C(C)C (some centres undefined),"inconclusive [inhibitor, partial curve]"
6,COc1ccc(/C=N/N2CCN(c3ccc(Cl)cc3)CC2)cc1,inactive
7,COc1ccccc1N1CCN(C(c2cccs2)C(C)NC(=O)c2ccco2)CC1 (centres undefined),"inconclusive [inhibitor, single point]"
8,Cc1cc(OCC(=O)NCC(c2cccs2)N2CCOCC2)ccc1C(C)C (centres undefined),"inconclusive [inhibitor, single point]"
9,COc1ccc(-c2nc(CSCC(=O)N3CCN(c4cc(Cl)ccc4C)CC3)c(C)o2)cc1,"inconclusive [inhibitor, partial curve, poor fit]"
10,COc1cccc(OCCn2cc(C=O)c3ccccc32)c1,"inconclusive [inhibitor, single point]"
11,CN1C(c2ccccc2)CC(=NO)CC1c1ccccc1 (centres undefined),"inconclusive [inhibitor, single point]"
12,Cc1nc2scc(C)n2c(=O)c1S(=O)(=O)NCC1CCN(Cc2ccc(F)cc2)CC1,"inconclusive [inhibitor, full curve, poor fit]"
13,CN1C(C(=O)NCc2ccc(OC(F)(F)F)cc2)CC2Cn3c(nc4cc(Cl)c(Cl)cc43)C21 (centres undefined),inactive
14,O=C(NCc1cccnc1)c1cnc2n(c1=O)CCS2,inactive
15,O=C(Nc1ccccc1Cc1ccccc1)c1ccccc1NS(=O)(=O)c1ccc(Cl)s1,"inconclusive [inhibitor, partial curve, poor fit]"
16,Cc1ccc(NCc2n[nH]c(=S)n2Cc2ccccc2)cc1Cl,"inconclusive [inhibitor, single point]"
17,CCOc1ccc(N2CC(c3nc4ccccc4n3CCOc3ccccc3OC)CC2=O)cc1 (centres undefined),"inconclusive [inhibitor, single point]"
18,CN(Cc1ccccc1)C(=O)COC(=O)c1cc(NS(=O)(=O)c2cccs2)ccc1O,"inconclusive [inhibitor, single point]"
19,COC(=O)[C@H]1[C@@H](C)N(Cc2ccccc2)C(=O)N[C@H]1c1ccccc1,inactive
20,CC(=O)NC(C)(c1ccccc1)c1nc(-c2ccc(N(C)C)cc2)cs1 (centres undefined),"inconclusive [inhibitor, single point]"

row,SMILES,Potency
1,CC(C)NC(=S)N1CCN(Cc2ccc3c(c2)OCO3)CC1,inactive
2,Cc1ccc(CN2CCN(/N=C\C=C\c3ccccc3)CC2)cc1,"inconclusive [inhibitor, partial curve, poor fit]"
3,Cc1cccc(NS(=O)(=O)c2ccc3c(c2)CC(C)N3C(=O)C2CCC2)c1C (centres undefined),"inconclusive [inhibitor, single point]"
4,CC1(C)Cc2c(sc(NC(=O)COc3ccc(Cl)cc3Cl)c2C(N)=O)C(C)(C)N1,"inconclusive [inhibitor, full curve, poor fit]"
5,CCOc1ccc(/C=C/C(=O)Nc2ccc(OC)cc2[N+](=O)[O-])cc1,inactive
6,COc1ccc(NC(=O)Cc2cccc(F)c2)cc1S(=O)(=O)Nc1ccccc1Cl,"inconclusive [inhibitor, single point]"
7,Cc1ccc(S(=O)(=O)N(CC(=O)Nc2ccc(Cl)cc2Cl)c2ccccc2C)cc1,"inconclusive [inhibitor, single point]"
8,COc1ccc(NC(=S)N2CCN(C(c3ccccc3)c3ccccc3)CC2)cc1OC,"inconclusive [inhibitor, partial curve, poor fit]"
9,Cc1ccc(-c2noc(-c3ccccc3C(=O)NCc3ccco3)n2)cc1,"inconclusive [inhibitor, partial curve, poor fit]"
10,CCc1nnc(NC(=O)C2c3ccccc3Oc3ccccc32)s1,"inconclusive [inhibitor, single point]"
11,O=C(CCCN1C(=O)c2cccc3cccc(c23)C1=O)N1CCc2ccccc2C1,"inconclusive [inhibitor, single point]"
12,COc1ccc(-c2c(-c3cc(OC)cc(OC)c3)n(C)c3ccc(-c4ccc5[nH]ccc5c4)cc23)cc1,"inconclusive [inhibitor, partial curve, poor fit]"
13,NC(=O)CC(NC(=O)c1ccc(Br)cc1)c1ccc(NCc2ccc(F)cc2)c([N+](=O)[O-])c1 (centres undefined),"inconclusive [inhibitor, single point]"
14,c1csc(-c2cc(N3CCCCC3)c3ccccc3n2)c1,"inconclusive [inhibitor, partial curve, poor fit]"
15,Cc1cn(C(=O)c2ccccc2)c(=S)n1-c1ccc(Br)cc1,"inconclusive [inhibitor, single point]"
16,COc1ccc(-c2csc(NC(=O)C3=COCCO3)n2)c(OC)c1,"inconclusive [inhibitor, single point]"
17,Cc1oc(-c2ccc(C(=O)NCc3cccc(F)c3)cc2)nc1COc1ccccc1,inactive
18,CCCc1cc(-n2ccnc2C)n2c(nc3ccccc32)c1C#N,inactive
19,COCCCNC(=O)c1ccc(-c2nc(CS(=O)(=O)c3ccc(C)cc3)c(C)o2)cc1,"inconclusive [inhibitor, single point]"
